In publication PMC13288994, “Identification and characterization of novel chikungunya virus polymerase inhibitors” (Journal of Virology, 2026):
Like-named read-outs stand apart in the source and are kept apart here.

What was measured:
CHIKV-nLuc [1] = assay: microbe, parasite or virus in culture; type: cell-based; conditions: 96-well, vendor-sourced compound, read-out: Antiviral potency (EC50 [µM]) CHIKV (Vero)
CHIKV-nLuc [2] = conditions: read-out: Antiviral potency (EC50 [µM]) CHIKV (U-2 OS)
CHIKV-nLuc [3] = assay: microbe, parasite or virus in culture; conditions: Chikungunya virus, U2OS, read-out: Antiviral potency (EC50 [µM]) CHIKV (U-2 OS)

| Compound | EC50 (CHIKV-nLuc [1]) [µM] | EC50 (CHIKV-nLuc [2]) [µM] | EC50 (CHIKV-nLuc [1]; Chikungunya virus, Vero) [µM] | EC50 (CHIKV-nLuc [3]) [µM] |
| --- | --- | --- | --- | --- |
| N-[2-(4-fluorophenyl)ethyl]-1,5-dimethyl-N-[(2-methylpyrazol-3-yl)methyl]pyrazole-4-sulfonamide [GAP-1146924] | 19 | 24.1 |  |  |
| CCNc1cc(C)nc(N2CCN(C(=O)c3cccc4ccccc34)CC2)n1 [GAP-1066658] |  |  | 3.2 | 3.1 |
| CCN1CCc2nc3sc(C(=O)c4ccccc4)c(C)c3cc2C1 [GAP-1022776] |  |  | 7.7 | 9.1 |
| Cn1nc(CN(C(=O)c2ccc(F)cc2)c2ccccc2)c2c1CCN(S(=O)(=O)Cc1ccccc1F)C2 [GAP-1081237] |  |  | 10.5 | 9.1 |
| Cc1ccc(NC(=O)c2oc3ccccc3c2NC(=O)c2nc(S(C)(=O)=O)ncc2Cl)cc1 [GAP-1027276] |  |  | ~10 | ~10 |
| CCS(=O)(=O)c1ncc(Cl)c(C(=O)Nc2nnc(C(C)C)s2)n1 [GAP-1027282] |  |  | > 10 | 1.9 |
| CC(C)(C)c1ccc(C(=O)On2c(-c3ccccc3F)nc3ccccc3c2=O)cc1 [GAP-1000864] |  |  | > 10 | ~10 |
| O=C(CSc1c2c(nc3cc(Cl)ccc13)CCCC2)Nc1ccc2c(c1)OCCO2 [GAP-1022901] |  |  | 3.76 | > 10 |
| O=C(CN1C(=O)CNC1=O)NCc1n[nH]c2c1CCCCC2 [GAP-1173149, 2-(2,5-dioxoimidazolidin-1-yl)-N-(1,4,5,6,7,8-hexahydrocyclohepta[d]pyrazol-3-ylmethyl)acetamide] |  |  | 18.6 | 15.6 |
| Cc1ccc2sc(N(CCCN(C)C)C(=O)c3nc4ccccc4s3)nc2c1C [GAP-1041908] |  |  | 22.2 | 13.3 |
